Screen size: about 410,000 compounds; about 6,400 (1.6%) were called active. This list was built around the results that the source calls inconclusive (neither active nor inactive); the mix of calls is not that of the screen. Calls follow the shape of the dose curve; as a rule, active = well fitted inhibition curve with a large enough effect; inconclusive = small, poorly fitted or top-dose-only effect; inactive = no such curve, though single readings can be large or run the other way. No potency is given beside an inconclusive call; the fits are too rough.
The molecules below were run against Glucagon-like peptide 1 receptor (Homo sapiens) (UniProt P43220) (assay: qHTS of GLP-1 Receptor Inverse Agonists (Inhibition Mode)). Details: HEK293 GLP-1R CRE-luciferase, luminescence, 24 h; Potency: GLP-1R form is constitutively active unless noted; activity change, negative = inhibition: at 38.3 µM (top of the series) unless noted.
Procedure, shortened: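 qHTS in 1536-well format: reporter HEK293 cells expressing constitutive GLP-1R activity in DMEM + 10% Nu serum, 24 hr with compounds at 37 deg C, luminescence read after 12 min with detection reagent.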
% is scaled to controls: 0 for no effect and ±100 for the full control effect; potency is read from the fitted curve at half-maximal effect; tags tell the direction and shape of the fitted curve.
Also: nearly all actives have a fitted effect of over 55% in size.

UniProt P43220, sequence (P43220 whole entry, looked up): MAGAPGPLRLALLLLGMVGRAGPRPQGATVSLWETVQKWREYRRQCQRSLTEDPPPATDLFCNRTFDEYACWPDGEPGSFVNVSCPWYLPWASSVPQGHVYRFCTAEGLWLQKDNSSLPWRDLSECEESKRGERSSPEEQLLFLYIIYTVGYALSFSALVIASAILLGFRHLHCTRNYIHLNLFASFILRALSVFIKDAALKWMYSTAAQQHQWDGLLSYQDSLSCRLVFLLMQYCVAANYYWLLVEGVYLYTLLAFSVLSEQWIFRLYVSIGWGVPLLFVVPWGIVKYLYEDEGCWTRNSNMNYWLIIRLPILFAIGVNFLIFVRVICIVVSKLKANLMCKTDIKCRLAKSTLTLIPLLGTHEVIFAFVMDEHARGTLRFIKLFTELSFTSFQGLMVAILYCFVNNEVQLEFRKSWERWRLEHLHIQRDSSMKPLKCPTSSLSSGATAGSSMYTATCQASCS

SMILES | Potency | activity change, negative = inhibition
C=C[C@@H]1C[C@@]1(C)[C@@H](NP(=O)(c1ccccc1)c1ccccc1)c1ccccc1 | active: 10 µM [setting not given] | 
CCOP(=O)(OCC)c1nc(-c2cccc3ccccc23)oc1N1CCOCC1 | inconclusive [inhibitor, single point] | 
OC(CCCN1CCC(O)(c2ccc(Cl)cc2)CC1)c1ccc(F)cc1 (centres undefined) | inconclusive [inhibitor, partial curve] | 
CN(C)c1ccc(C(=O)c2ccc(N(C)C)cc2)cc1 | inconclusive [inhibitor, partial curve, poor fit] | 
Clc1cccc(C2NCc3ccccc3-n3cccc32)c1 (centres undefined) | inconclusive [inhibitor, single point] | 
CC1CCN(c2cc(Br)c([N+](=O)[O-])cc2F)CC1 | inconclusive [inhibitor, single point] | 
O=C1C2(Cl)C3(Cl)C4(Cl)C(Cl)(Cl)C5(Cl)C3(Cl)C1(Cl)C5(Cl)C24Cl (centres undefined) | active: 4.47 µM [setting not given] | 
Clc1ccc(C[n+]2c(-c3ccccc3)cc(-c3ccccc3)cc2-c2ccccc2)cc1 | inconclusive [inhibitor, full curve] | 
CC(C)OP(=O)(OC(C)C)C(Nc1ccccc1)c1cccc2c1OCO2 (centres undefined) | inconclusive [inhibitor, single point] | 
C/C(=N\N1CCCCCC1)c1c(O)n(C2CCCCC2)c(=O)[nH]c1=O | inconclusive [inhibitor, partial curve, poor fit] | 
COCCCn1c(-c2ccc(OC)cc2)cc(C(=O)NC2CCCCCCC2)c1C | inconclusive [inhibitor, partial curve, poor fit] | 
Cn1cc(C=C2C(=O)NC(=O)NC2=O)c2ccccc21 | inactive | 
O=C(CNC(=O)c1cccc(Cl)c1)Nc1ccc(Br)cc1C(=O)c1ccccc1 | inconclusive [inhibitor, single point] | 
COc1ccccc1CNCCc1cccc(Cl)c1 | inconclusive [inhibitor, partial curve, poor fit] | 
CCOC(=O)C1CCCN(C(=O)c2ccc3oc(Cc4ccccc4)nc3c2)C1 (centres undefined) | inconclusive [inhibitor, single point] | 
Cc1ccc(Cl)cc1N1CCN(C(=O)C2CCCN(S(=O)(=O)c3ccc(Br)s3)C2)CC1 (centres undefined) | inconclusive [inhibitor, partial curve, poor fit] | 
O=C(CCC(=O)N1C[C@H]2C[C@@H](C1)c1cccc(=O)n1C2)NCc1cccc(C(F)(F)F)c1 | inactive | 
C/C(CC(c1ccccc1)c1c(O)c2ccccc2oc1=O)=N\NC(N)=S (centres undefined) | inconclusive [inhibitor, single point] | 
O=C(C(=O)N1CCOCC1)c1cn(Cc2ccc(F)cc2)c2ccccc12 | inconclusive [inhibitor, partial curve, poor fit] | 
CCNC(=O)N1Cc2ccccc2-n2nncc2C1 | inactive | 

SMILES | Potency | activity change, negative = inhibition
COc1ccc(CN2CCN(c3ccccc3)CC2)c(C)c1C | inactive | 
CC(=O)c1cn(CCCOc2ccccc2)c2ccccc12 | inconclusive [inhibitor, partial curve, poor fit] | 
CCOC(=O)C(O)(c1ccc(N(CC)C(=O)COc2ccccc2)cc1)C(F)(F)F (centres undefined) | inconclusive [inhibitor, single point] | 
CCN(CC)C(=O)c1ccc(NC(=O)CNC(C)c2cccc3ccccc23)cc1 (centres undefined) | inconclusive [inhibitor, partial curve, poor fit] | 
COc1cccc([C@@]2(O)CCCC[C@@H]2CN(C)C)c1 | inactive | 
c1ccc(CN2CCN(Cc3ccc4c(c3)OCCO4)CC2)cc1 | inactive | 
CN(C)C1(CNC(=O)c2ccc(Cl)c(S(=O)(=O)NCc3ccco3)c2)CCCCC1 | inconclusive [inhibitor, single point] | 
O=C(O)c1ccc([N+](=O)[O-])c([N+](=O)[O-])c1 | inconclusive [inhibitor, full curve, poor fit] | 
Nc1ccccc1C(=O)OCCc1ccccc1 | inconclusive [inhibitor, single point] | 
COC(=O)C1=C(c2ccc(OCc3ccccc3)c(F)c2)C[C@@H]2CC[C@H]1N2C | inconclusive [inhibitor, partial curve, poor fit] | 
Clc1ccc2c(c1)C(c1ccccc1Cl)=NCc1nnc(N3CCN(CCOc4ccccc4)CC3)n1-2 | inconclusive [inhibitor, single point] | 
O=C(CCC1N=C2c3ccccc3N=C(SCc3cccc(Cl)c3)N2C1=O)N1CCN(c2ccccc2)CC1 (centres undefined) | inconclusive [inhibitor, partial curve] | 
COc1ccc(CN2CCCC(C(=O)c3ccc(Cl)cc3)C2)c(O)c1 (centres undefined) | inconclusive [inhibitor, single point] | 
Cc1cc(C)cc(C(=O)N(CCc2ccccc2)C2=CC3CCC(C2)N3C)c1 (centres undefined) | inconclusive [inhibitor, partial curve, poor fit] | 
COc1c(C)cc(C(=O)C2CCCN(Cc3cnc(C)s3)C2)cc1C (centres undefined) | inconclusive [inhibitor, partial curve, poor fit] | 
c1ccc(OCCSc2nc3ccccc3[nH]2)cc1 | inconclusive [inhibitor, single point] | 
C[C@@H]1CN([C@@H](C)CO)C(=O)c2c(c3ccccc3n2C)-c2ccccc2CO[C@H]1CN(C)C(=O)[C@H](C)c1ccccc1 | inconclusive [inhibitor, partial curve, poor fit] | 
COc1ccccc1OCCCn1cc(C(=O)C2CC2)c2ccccc21 |  | inactive: -3.46% [at 0.307 µM, GLP-1R form is constitutively active]
Cc1ccc(NC(=O)c2cc(-c3cc(Cl)ccc3C)n[nH]2)cc1NS(C)(=O)=O | inconclusive [inhibitor, partial curve, poor fit] | 
